{"source": "PubChem BioAssay AID1745853", "about": "(National Center for Advancing Translational Sciences (NCATS), 2022)", "experiment_in_all_cases": "Primary Screen for Target Class Profiling of Small Molecule Inhibitors of Methyltransferases; further: on the % scale 0 is the no-effect control and ±100 the full control effect", "key": {"[1]": {"molecular_target": "Glycine N-methyltransferase (Homo sapiens) (UniProt Q14749)", "conditions": "purified enzyme, MTase-Glo SAH luminescence; measured here: GNMT inhibition; at 40 µM; stronger effect = lower value", "outline": "(§1)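 Each enzyme was reacted with SAM and its substrate, with compounds tested once at 40 uM; SAH formed was read by MTase-Glo luminescence.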"}, "[2]": {"molecular_target": "Guanidinoacetate N-methyltransferase (Homo sapiens) (UniProt Q14353)", "conditions": "purified enzyme, MTase-Glo SAH luminescence; measured here: GAMT inhibition; at 40 µM; stronger effect = lower value", "outline": "as §1"}, "[3]": {"molecular_target": "Histamine N-methyltransferase (Homo sapiens) (UniProt P50135)", "conditions": "purified enzyme, MTase-Glo SAH luminescence; measured here: HNMT inhibition; at 40 µM; stronger effect = lower value", "outline": "as §1"}, "[4]": {"molecular_target": "Nicotinamide N-methyltransferase (Homo sapiens) (UniProt P40261)", "conditions": "purified enzyme, MTase-Glo SAH luminescence; measured here: NNMT inhibition; at 40 µM; stronger effect = lower value", "outline": "as §1"}, "[5]": {"molecular_target": "Phenylethanolamine N-methyltransferase (Homo sapiens) (UniProt P11086)", "conditions": "purified enzyme, MTase-Glo SAH luminescence; measured here: PNMT inhibition; at 40 µM; stronger effect = lower value", "outline": "as §1"}}, "note": "Some of the results follow. These are further read-outs of the screen, such as a control signal, another cell line or another target. No call is given for them."}
{"molecule": "CC1(C(=O)NCc2ccccc2)Cn2c(cc3ccccc32)C(=O)N1CCC1=CCCCC1", "note": "(stereo not given)", "values": [{"measurement": "activity change, negative = inhibition", "setting": "[1]", "result": -1.22, "unit": "%"}, {"measurement": "activity change, negative = inhibition", "setting": "[2]", "result": 2.54, "unit": "%"}, {"measurement": "activity change, negative = inhibition", "setting": "[3]", "result": -3.1, "unit": "%"}, {"measurement": "activity change, negative = inhibition", "setting": "[4]", "result": -5.34, "unit": "%"}, {"measurement": "activity change, negative = inhibition", "setting": "[5]", "result": -8.05, "unit": "%"}]}
{"molecule": "CC(C)CCn1c(=O)c2ccc(C(=O)NC3CCCCC3)cc2n2c(=O)n(CC(=O)c3ccccc3)nc12", "values": [{"measurement": "activity change, negative = inhibition", "setting": "[1]", "result": 5.28, "unit": "%"}, {"measurement": "activity change, negative = inhibition", "setting": "[2]", "result": 0.868, "unit": "%"}, {"measurement": "activity change, negative = inhibition", "setting": "[3]", "result": 5.24, "unit": "%"}, {"measurement": "activity change, negative = inhibition", "setting": "[4]", "result": 4.84, "unit": "%"}, {"measurement": "activity change, negative = inhibition", "setting": "[5]", "result": 6.42, "unit": "%"}]}
{"molecule": "CC1(CCC(=O)N2CCCC2C(=O)Nc2ccccc2Oc2cccnc2)CC1", "note": "(stereo not given)", "values": [{"measurement": "activity change, negative = inhibition", "setting": "[1]", "result": -3.68, "unit": "%"}, {"measurement": "activity change, negative = inhibition", "setting": "[2]", "result": -4.28, "unit": "%"}, {"measurement": "activity change, negative = inhibition", "setting": "[3]", "result": -2.51, "unit": "%"}, {"measurement": "activity change, negative = inhibition", "setting": "[4]", "result": -12.2, "unit": "%"}, {"measurement": "activity change, negative = inhibition", "setting": "[5]", "result": 7.03, "unit": "%"}]}
{"molecule": "CC(C)OCCCNC(=O)C1(C)Cn2c(cc3ccccc32)C(=O)N1Cc1ccccc1F", "note": "(stereo not given)", "values": [{"measurement": "activity change, negative = inhibition", "setting": "[1]", "result": 2.41, "unit": "%"}, {"measurement": "activity change, negative = inhibition", "setting": "[2]", "result": 4.06, "unit": "%"}, {"measurement": "activity change, negative = inhibition", "setting": "[3]", "result": -2.24, "unit": "%"}, {"measurement": "activity change, negative = inhibition", "setting": "[4]", "result": 7.02, "unit": "%"}, {"measurement": "activity change, negative = inhibition", "setting": "[5]", "result": 0.702, "unit": "%"}]}
{"molecule": "CSCCC(=O)N1CCC(C2CCN(c3ncccn3)CC2)C1", "note": "(stereo not given)", "values": [{"measurement": "activity change, negative = inhibition", "setting": "[1]", "result": -2.71, "unit": "%"}, {"measurement": "activity change, negative = inhibition", "setting": "[2]", "result": 1.3, "unit": "%"}, {"measurement": "activity change, negative = inhibition", "setting": "[3]", "result": 0.556, "unit": "%"}, {"measurement": "activity change, negative = inhibition", "setting": "[4]", "result": -4.79, "unit": "%"}, {"measurement": "activity change, negative = inhibition", "setting": "[5]", "result": 0.821, "unit": "%"}]}
{"molecule": "CN1CCN(CCCNC(=O)c2cc3n(n2)CC(C)(C(=O)NC2CCCCCC2)N(C)C3=O)CC1", "note": "(stereo not given)", "values": [{"measurement": "activity change, negative = inhibition", "setting": "[1]", "result": 4.07, "unit": "%"}, {"measurement": "activity change, negative = inhibition", "setting": "[2]", "result": 0, "unit": "%"}, {"measurement": "activity change, negative = inhibition", "setting": "[3]", "result": 1.71, "unit": "%"}, {"measurement": "activity change, negative = inhibition", "setting": "[4]", "result": 4.79, "unit": "%"}, {"measurement": "activity change, negative = inhibition", "setting": "[5]", "result": -0.523, "unit": "%"}]}
{"molecule": "Cc1ccc(C(=O)N2CCC3(CC2)N=C(c2cccc(Br)c2)NO3)s1", "values": [{"measurement": "activity change, negative = inhibition", "setting": "[1]", "result": -0.842, "unit": "%"}, {"measurement": "activity change, negative = inhibition", "setting": "[2]", "result": -1.61, "unit": "%"}, {"measurement": "activity change, negative = inhibition", "setting": "[3]", "result": -3.68, "unit": "%"}, {"measurement": "activity change, negative = inhibition", "setting": "[4]", "result": -3.42, "unit": "%"}, {"measurement": "activity change, negative = inhibition", "setting": "[5]", "result": -17.5, "unit": "%"}]}
{"molecule": "CC(=O)OC1C(O)CC2(C)C(CCC3(C)C2CC=C2C4C5(CCC(CO[C@@H]6O[C@H](CO)[C@@H](O)[C@H](O)[C@H]6O)(OC5=O)C4(C)O)C(O)CC23C)C1(C)C", "note": "(stereo not given in full)", "values": [{"measurement": "activity change, negative = inhibition", "setting": "[1]", "result": 2.99, "unit": "%"}, {"measurement": "activity change, negative = inhibition", "setting": "[2]", "result": 6.21, "unit": "%"}, {"measurement": "activity change, negative = inhibition", "setting": "[3]", "result": 5.29, "unit": "%"}, {"measurement": "activity change, negative = inhibition", "setting": "[4]", "result": -6.08, "unit": "%"}, {"measurement": "activity change, negative = inhibition", "setting": "[5]", "result": 4.65, "unit": "%"}]}
{"molecule": "C[C@]12CC/C(=N\\OCC(=O)O)C=C1CC[C@@H]1[C@@H]2[C@@H](O)C[C@@]2(C)[C@H]1CC[C@]2(O)C(=O)CO", "values": [{"measurement": "activity change, negative = inhibition", "setting": "[1]", "result": 0.075, "unit": "%"}, {"measurement": "activity change, negative = inhibition", "setting": "[2]", "result": 7.18, "unit": "%"}, {"measurement": "activity change, negative = inhibition", "setting": "[3]", "result": 3.86, "unit": "%"}, {"measurement": "activity change, negative = inhibition", "setting": "[4]", "result": -13.4, "unit": "%"}, {"measurement": "activity change, negative = inhibition", "setting": "[5]", "result": -5.42, "unit": "%"}]}
{"molecule": "Cc1ccc(C)c(N2C(=O)c3cc4occc4n3CC2(C)C(=O)NC2CCCCC2)c1", "note": "(stereo not given)", "values": [{"measurement": "activity change, negative = inhibition", "setting": "[1]", "result": 3.24, "unit": "%"}, {"measurement": "activity change, negative = inhibition", "setting": "[2]", "result": -7.19, "unit": "%"}, {"measurement": "activity change, negative = inhibition", "setting": "[3]", "result": -14.7, "unit": "%"}, {"measurement": "activity change, negative = inhibition", "setting": "[4]", "result": 9.65, "unit": "%"}, {"measurement": "activity change, negative = inhibition", "setting": "[5]", "result": 0.955, "unit": "%"}]}
{"molecule": "CC(=O)NCC(=O)N1C2CCC1c1cc(Nc3ncc(C(F)(F)F)c(NC4CCC4)n3)ccc12", "note": "(stereo not given)", "values": [{"measurement": "activity change, negative = inhibition", "setting": "[1]", "result": 2.7, "unit": "%"}, {"measurement": "activity change, negative = inhibition", "setting": "[2]", "result": 3.26, "unit": "%"}, {"measurement": "activity change, negative = inhibition", "setting": "[3]", "result": -5.02, "unit": "%"}, {"measurement": "activity change, negative = inhibition", "setting": "[4]", "result": -64.6, "unit": "%"}, {"measurement": "activity change, negative = inhibition", "setting": "[5]", "result": 1.31, "unit": "%"}]}
{"molecule": "CCCn1c(=O)c2ccc(C(=O)NC(C)C)cc2n2c(=O)n(CC(=O)NC(C)CC)nc12", "note": "(stereo not given)", "values": [{"measurement": "activity change, negative = inhibition", "setting": "[1]", "result": 7.33, "unit": "%"}, {"measurement": "activity change, negative = inhibition", "setting": "[2]", "result": 0, "unit": "%"}, {"measurement": "activity change, negative = inhibition", "setting": "[3]", "result": 8.09, "unit": "%"}, {"measurement": "activity change, negative = inhibition", "setting": "[4]", "result": 6.92, "unit": "%"}, {"measurement": "activity change, negative = inhibition", "setting": "[5]", "result": 5.78, "unit": "%"}]}
{"molecule": "CC(C)Cn1c(=O)c2cc(F)ccc2n2c(SCC(=O)Nc3cccc(Cl)c3)nnc12", "values": [{"measurement": "activity change, negative = inhibition", "setting": "[1]", "result": 0.237, "unit": "%"}, {"measurement": "activity change, negative = inhibition", "setting": "[2]", "result": 0, "unit": "%"}, {"measurement": "activity change, negative = inhibition", "setting": "[3]", "result": 6.11, "unit": "%"}, {"measurement": "activity change, negative = inhibition", "setting": "[4]", "result": -10.1, "unit": "%"}, {"measurement": "activity change, negative = inhibition", "setting": "[5]", "result": 2.81, "unit": "%"}]}
{"molecule": "Cn1c(=O)c2ccc(C(=O)NC3CCCCC3)cc2n2c(SCC(=O)Nc3ccc(F)cc3)nnc12", "values": [{"measurement": "activity change, negative = inhibition", "setting": "[1]", "result": -2.3, "unit": "%"}, {"measurement": "activity change, negative = inhibition", "setting": "[2]", "result": 1.01, "unit": "%"}, {"measurement": "activity change, negative = inhibition", "setting": "[3]", "result": 1.2, "unit": "%"}, {"measurement": "activity change, negative = inhibition", "setting": "[4]", "result": 2.11, "unit": "%"}, {"measurement": "activity change, negative = inhibition", "setting": "[5]", "result": 4.01, "unit": "%"}]}
{"molecule": "CC1=CCC2C(C)(C)CCCC2(C)C1CC12OC1C(O)C(CO)=CC2O", "note": "(stereo not given)", "values": [{"measurement": "activity change, negative = inhibition", "setting": "[1]", "result": 0, "unit": "%"}, {"measurement": "activity change, negative = inhibition", "setting": "[2]", "result": 13.8, "unit": "%"}, {"measurement": "activity change, negative = inhibition", "setting": "[3]", "result": 5.12, "unit": "%"}, {"measurement": "activity change, negative = inhibition", "setting": "[4]", "result": -5.85, "unit": "%"}, {"measurement": "activity change, negative = inhibition", "setting": "[5]", "result": 9.93, "unit": "%"}]}
{"molecule": "N#Cc1cnc(N2CC3CCC(C2)N3CC(F)(F)F)s1", "values": [{"measurement": "activity change, negative = inhibition", "setting": "[1]", "result": 0.922, "unit": "%"}, {"measurement": "activity change, negative = inhibition", "setting": "[2]", "result": 0.369, "unit": "%"}, {"measurement": "activity change, negative = inhibition", "setting": "[3]", "result": -53, "unit": "%"}, {"measurement": "activity change, negative = inhibition", "setting": "[4]", "result": -0.746, "unit": "%"}, {"measurement": "activity change, negative = inhibition", "setting": "[5]", "result": -0.587, "unit": "%"}]}
